The whole screen tested about 5,400 compounds, of which about 190 (3.5%) showed an effect of 50% or more. This is one part of the list. Non-standard residues stand in square brackets, D forms with d. Residues, ends and D or L forms follow the SMILES beside them. *: point of attachment. Sta = CC(C)C[C@H](N)[C@@H](O)CC(=O)O; Isovaleryl = CC(C)CC(=O)*
What follows are molecules tested on Vero-E6 (assay: primary screen, phospholipidosis by LipidTOX staining; higher = more effect of the substance). Conditions: 10 µM.
Procedure: To measure drug-induced PLD in Vero-E6 cells, we used the HCS LipidTOX Red Phospholipidosis Detection Reagent (Invitrogen, #H34351), which is non-toxic to cell growth and remains well retained after aldehyde fixation. In this setup, compounds (at 10 μM concentration) and controls (amiodarone: 10 μM concentration; DMSO: 0.1 v/v %) were added to clear-bottom, 384-well plates (PhenoPlate 384-well, black, optically clear flat bottom, tissue-culture treated, Revvity #6057302) using the Echo Liquid Handler (Labcyte).

Compound | result_ITMP [%]
CC(C)(C)c1ccc(-c2nc3ccccc3[nH]2)cc1 | 1.03
CC[C@@H](c1cccc(O)c1)[C@@H](C)CN(C)C | -2.25
Cc1nc(-c2cn3c(n2)-c2ccc(-c4cnn(C(C)(C)C(N)=O)c4)cc2OCC3)n(C(C)C)n1 | -1.26
O=C(/C=C/c1ccc(CN(CCO)CCc2c[nH]c3ccccc23)cc1)NO | -1.88
Nc1nc(NCCc2ccc(O)cc2)nc2nc(-c3ccco3)nn12 | -3.67
CCCCCCCCCCCC(=O)N(CCO)CCO | -3.72
COC(=O)c1ccc(O)cc1 | -5.12
COC(=O)N(C)c1c(N)nc(-c2nn(Cc3ccccc3F)c3ncccc23)nc1N | -4.67
Cc1cccc(NC(=O)N[C@@H]2N=C(c3ccccc3)c3ccccc3N(C)C2=O)c1 | -4.61
c1ccc(C(NCc2cccnc2)(c2ccccc2)c2ccccc2)cc1 | -7.19
Cc1cccc(C#Cc2ccccc2)n1 | -2.86
N[C@H](C(=O)O)c1cc(O)cc(O)c1 | -1.33
COC(=O)C1=C(C)NC(C)=C(C(=O)OCCSc2ccccc2)C1C (centres unmarked) | -2.59
CN(C)C(=O)Oc1cc(OC(=O)N(C)C)cc(C(O)CNC(C)(C)C)c1 (centres unmarked) | -6.07
C[C@H](O)C(=O)Nc1c(I)c(C(=O)NC(CO)CO)c(I)c(C(=O)NC(CO)CO)c1I | 0.49
c1ccc(CCNc2nc(-c3ccccc3)cs2)cc1 | -3.35
CC(C)CC(=O)N[C@H](C(=O)N[C@H](C(=O)N[C@@H](CC(C)C)[C@@H](O)CC(=O)N[C@@H](C)C(=O)N[C@@H](CC(C)C)[C@@H](O)CC(=O)O)C(C)C)C(C)C (Isovaleryl-VV[Sta]A[Sta]-OH) | -0.89
CC1(C)CCC(C)(C)c2cc(C3(c4ccc5cc(C(=O)O)ccc5c4)SCCS3)ccc21 | -1.71
C[C@H](C(=O)O)c1ccc(-c2ccccc2)c(F)c1 | -2.74
O=c1cc(O)c(Cl)c[nH]1 | -6.34
c1ccc(OCc2ccc(CCCN3CCOCC3)cc2)cc1 | 14.3
CCCCN(CCCC)C(=O)CN1C[C@H](c2ccc3c(c2)OCO3)[C@@H](C(=O)O)[C@@H]1c1ccc(OC)cc1 | 0.36

Compound | result_ITMP [%]
O=C1CC2(CCCC2)CC(=O)N1CCCCN1CCN(c2ncccn2)CC1 | -2.83
CC[C@H]1OC(=O)[C@H](C)[C@@H](O[C@H]2C[C@@](C)(OC)[C@@H](O)[C@H](C)O2)[C@H](C)[C@@H](O[C@@H]2O[C@H](C)C[C@H](N(C)C)[C@H]2O)[C@](C)(O)C[C@@H](C)[C@@H]2N[C@@H](COCCOC)O[C@H]([C@H]2C)[C@]1(C)O | 3.41
CC(=O)[C@H]1CCC2C3CC=C4C[C@@H](O)CC[C@]4(C)C3CC[C@@]21C (some centres unmarked) | -3.36
Cc1cc(C)c(/C=C2\C(=O)Nc3ccccc32)[nH]1 | -1.96
CN/C(=C\[N+](=O)[O-])NCCSCc1csc(CN(C)C)n1 | -10.8
CC(C)c1cc(-c2ccc(F)c3ccccc23)nc(N)n1 | -4.48
COC(=O)Nc1nc2ccc(S(=O)c3ccccc3)cc2[nH]1 (centres unmarked) | 10.2
N#Cc1cc(-c2n[nH]c(-c3ccncc3)n2)ccn1 | -1.96
CC(=O)N(OCc1ccccc1)[C@@H]1c2cc(C#N)ccc2OC(C)(C)[C@H]1O | -8.99
CCn1ccnc1CC1COc2ccccc2O1 (centres unmarked) | -1.64
COc1ccc(S(=O)(=O)N(C(C)=O)c2ccccc2/C=C/c2cc[n+]([O-])cc2)cc1 | 12.8
Cc1c(F)cc(C(=O)NC2CC2)cc1-c1ccc(C(=O)NCC(C)(C)C)cn1 | 0.26
O=C(O)[C@@H](c1ccc(OCc2ccc3ccccc3n2)cc1)C1CCCC1 | -10.2
Cn1cc(C(=O)C(=O)N[C@H]2CN3CCC2CC3)c2ccccc21 | 4.71
C[C@]12CCC(=O)C=C1CC[C@@H]1[C@@H]2CC[C@@]2(C)[C@H]1CC[C@]2(C)O | 0.46
CCCCCCCCCCCCCCCC(=O)O[C@@H]1[C@@H](O)[C@@H](O)[C@@H]([C@H](NC(=O)[C@@H]2C[C@@H](CCC)CN2C)[C@H](C)Cl)O[C@@H]1SC | 8.48
Cc1cc(CC(=O)O)n(C)c1C(=O)c1ccc(Cl)cc1 | -3.4
O=C(O)C1=CCCNC1 | 3.24
COc1cc(C#N)ccc1S(=O)(=O)Nc1ccc2c(c1)cc(C)c(=O)n2C | -3.82
CCOC(=O)c1ccc(-c2ccc(OC(=O)N(C)Cc3cccc(-c4ccncc4)c3)cc2)cc1 | -1.86
CC(=O)Nc1ncc([N+](=O)[O-])s1 | 1.4
FC(F)(F)c1ccc(N2CCNCC2)nc1Cl | 29.2

From PMC13083723 (Patterns, 2026)
